Measurements reported in patent US20240425574A1, “ANTI-PDGF-B ANTIBODIES AND PHARMACEUTICAL COMPOSITION THEREOF” (Regeneron Pharmaceuticals, Inc., priority 2021, published 2024).

Experiments:
monocrotaline rats = assay: 5 weeks Monocrotaline severe PAH rats survival, therapeutic treatment (Example 10 study 2); assay type: in vivo, rat
Method: Six to seven weeks old male Sprague Dawley rats were used. […] Standard of care group was orally administered macitentan at 30 mg/kg daily for 28 days. At day one, rats were subcutaneously administered either 40 mg/kg of monocrotaline or 5 mL/kg of saline. By the end of day 28, right ventricular systolic pressure (RVSP) was measured by right heart catheterization and RV hypertrophy was calculated by Fulton index as the weight ratio of RV and (LV+septum). In study 2, rats were subcutaneously administered either 60 mg/kg of monocrotaline or 5 mL/kg of saline. […] Body weight change from day 0-35 were used for general toxicity assessment and animal mortality was calculated by day 35.

human PDGF-BB = human PDGF-BB (Homo sapiens, UniProt P01127); details: all 1 nM PDGF treatments; anti-PDGF-B antibodies at 60 seconds
Method: Upon reaching 100% confluency in the well, PDGF driven calcium flux was assessed via the FLIPR® Calcium 5 Assay Kit (Molecular Devices, Cat #R8185) on the FLIPR Tetra System (Molecular Devices) following the manufacturer's protocol. Briefly, complete media was replaced with 50 μL assay media (DMEM-0.1% BSA-1× Penicillin/Streptomycin/L-Glutamine). The Calcium 5 dye was then reconstituted in the supplied buffer in the presence of probenecid (Thermofisher, Cat #P36400). […] A 1 nM concentration of PDGF-AB, PDGF-BB and the combination treatment PDGF-AB/BB was chosen as a constant to assess antibody inhibition. […] Antibodies were pre-incubated with PDGF proteins for 30-minutes before addition onto the cells via the FLIPR tetra system. Calcium flux traces were assessed at both 60 seconds and over the full-time course of 5 minutes. These calcium traces were analyzed for their Max-Min values using the SoftMax Pro Software (Molecular Devices).

Chain of human PDGF-BB (P01127 82-190 limits assumed): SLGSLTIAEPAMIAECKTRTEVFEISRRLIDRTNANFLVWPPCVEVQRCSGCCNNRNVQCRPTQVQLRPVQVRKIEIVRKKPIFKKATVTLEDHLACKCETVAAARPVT

B1: H4H13145P: fully human anti-PDGF-B mAb, human IgG4 Fc; HCVR/LCVR SEQ ID NOs: 2/10, HC/LC 18/20 (antibody)
heavy: QVQLVQSGTEVKKPGASVKVSCKASGYTYGAYAISWVRQAPGQGLEWMGWISAYNGNTNYAQKFQDRVTMTTDTSTNTAYMELRGLKSDDTAVYFCARAWNSFDYWGQGTLVTVSSASTKGPSVFPLAPCSRSTSESTAALGCLVKDYFPEPVTVSWNSGALTSGVHTFPAVLQSSGLYSLSSVVTVPSSSLGTKTYTCNVDHKPSNTKVDKRV[human IgG4 Fc with S228P (EU numbers) left out here]
light: DIQMTQSPSSLSASVGDRVTITCQASQDIRKNLNWYQQKPGKAPKLLISDASTLETGVPSRFSGSGSGTDFTFTISSLQPEDIAKYYCQQYYNLPFTFGPGTKVDIKRTVAAPSVFIFPPSDEQLKSGTASVVCLLNNFYPREAKVQWKVDNALQSGNSQESVTEQDSKDSTYSLSSTLTLSKADYEKHKVYACEVTHQGLSSPVTKSFNRGEC
Monocrotaline rats; high dose Monocrotaline Rat-Therapeutic, 25 mg/kg, printed as change from 91%
  Mortality: 91%-−>58%
Monocrotaline rats; monocrotaline 60 mg/kg, 25 mg/kg SC 2x/week from day 14
  animal body weight loss: significantly attenuated
Human PDGF-BB
  inhibition of PDGF mediated calcium flux in words: complete inhibition
